In the supplement of paper PMC12355420:
Where a name gives a salt, the structure may show the parent alone. This is one part of the list. Many values rest on one well or one pass, so single values are uncertain.

tested on: HeLa VPS33A KO + NLuc-VPS33A R498W; assay: relative mutant VPS33A R498W amount (NanoLuc luminescence) vs DMSO (fraction of DMSO); HeLa model of a glycosaminoglycan (GAG) storage disease; KI is knock-in and KO knock-out; SDC1 is syndecan 1; higher = higher mutant VPS33A level; settings: 50 µM; 24 h
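Note: screen of an FDA-approved drug library, NanoLuc luminescence read after lysing the treated cells, taken as a measure of mutant VPS33A protein stability.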

SMILES	relative mutant VPS33A R498W amount
O=P1(N(CCCl)CCCl)NCCCO1 (stereo not given) [Cyclophosphamide monohydrate]	1.24
CNCC(O)c1ccc(O)cc1 (stereo not given) [Synephrine]	1.1
CN(C)C(=O)Oc1ccc[n+](C)c1 [Pyridostigmine Bromide]	1.09
NCCc1ccc(O)cc1 [Tyramine]	1.38
O=S(=O)(F)Cc1ccccc1	1.23
C[C@]12CCC(=O)C[C@@H]1CC[C@@H]1[C@@H]2CC[C@]2(C)[C@@H](O)CC[C@@H]12 [Dihydrotestosterone(DHT)]	1.25
CO[C@]12C[C@@H](COC(=O)c3cncc(Br)c3)CN(C)[C@@H]1Cc1cn(C)c3cccc2c13 [Nicergoline]	0.526
O=P1(N(CCCl)CCCl)NCCCO1 (stereo not given) [Cyclophosphamide]	1.29
CN(C)NC(=O)CCC(=O)O [Daminozide]	1.26
CCOC(=O)c1cncn1[C@H](C)c1ccccc1 [Etomidate hydrochloride]	0.914
CC(=O)[C@H]1CC[C@H]2[C@@H]3CC[C@H]4C[C@H](O)CC[C@]4(C)[C@H]3CC[C@]12C [Allopregnanolone]	1.14
C=C[C@H]1CN2CC[C@H]1C[C@H]2[C@H](O)c1ccnc2ccccc12 [Cinchonidine]	1.1
CNCC(=O)c1ccc(O)c(O)c1 [Adrenalone HCl]	1.03
CCN(C)C(=O)Oc1cccc([C@H](C)N(C)C)c1 [Rivastigmine Tartrate]	0.808
CCC1=C[C@H]2CN3CCc4c([nH]c5ccccc45)[C@](C(=O)OC)(C2)[C@H]13 [Catharanthine]	0.862
